The source of these data is the supplement of paper PMC10126150.

Sequences with one replicate were seen in a single cluster, so their values are uncertain.

The data set concerns ATP. In words: switch fluorescence ratio, 500 uM ATP over buffer (Cy3 cluster intensity, sum of 5 cycles each) (fold (ratio)); higher = stronger signal-on switching upon ATP binding; sequences stand for … in TCGTCGGCAGCGTCAGATGTGTATAAGAGACAGTTTTTTTTTTTTTTTTTTTTTTTTT…TC. The conditions noted are these: aptamer strand: ATP DNA aptamer (quencher-CACCTGGGGGAGTATTGCGGAGGAAGG + anchor), 100 nM annealed; ATP concentration: 500 uM; one replicate. Summed up: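 Switching-strand clusters labelled with Cy3 on a modified Illumina MiSeq flow-cell were annealed to 100 nM quencher-labelled ATP aptamer, imaged in selection buffer, and re-imaged after 15 min with 500 uM ATP at 22 °C. This was done over five cycles with NaOH stripping and re-annealing in between. The fluorescence ratio is summed target-cycle over summed buffer-cycle Cy3 intensity per cluster, averaged per switch-domain sequence, excluding clusters outside 100-1000 RFU.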
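Also: ATP exposure 15 min at 22 °C before imaging.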

In the case of GCATAAATGA, the switch fluorescence ratio was 0.993.

Take CGGGTGATCA: the switch fluorescence ratio is 1.03. To CACCGAGGTA belongs 0.973.

On to AAGGTGTGAC, for which the switch fluorescence ratio came to 1.02. For TTAAATCTTC the value was 1.06.

As to AAGTAGTCAG, the switch fluorescence ratio worked out at 0.993.

With GGGGATCTGA, the switch fluorescence ratio came out at 0.939.

In the case of GGAGGTGAGT, the switch fluorescence ratio worked out at 1.04. For AACATATCTA the value was 1.01; for TTGAATGCAC, 1.08; for AGCGAGGGAT, 1.01. For ACTGGTGCTT the value was 0.969. To ACGTTCACAC belongs 1.66; to ACGGGTATGC, 1.02. Regarding ATCCTTGGAA, the switch fluorescence ratio is 1.02.

ATGCAGTGGA: the switch fluorescence ratio is 0.996.

As to AGCAAGCCCC, the switch fluorescence ratio is 2.39. To TCTCACTAG belongs 1.01; to CCATGCTGCA, 1.01; to CCGCTCTCTT, 2.14. For CCATAGCATG the value was 2.47. Take AATGTTCTAG: the switch fluorescence ratio was found to be 1.

In the case of TAACCTTCAT, the switch fluorescence ratio amounted to 2.57.

In the case of GGGGCCCGAG, the switch fluorescence ratio came to 0.978. TCAAGTCAGC: the switch fluorescence ratio turned out to be 1. Consider CCGTATGACA, for which the switch fluorescence ratio was 1.05.

On to GCTCGCGGTA, for which the switch fluorescence ratio was found to be 1.13. To GTTATAATGA belongs 1.04; to CAGAAAATGC, 1.03.

For AATGGCAGTT, the switch fluorescence ratio was found to be 1.01. Turning to CGGGAGATGA, the switch fluorescence ratio amounted to 1. Consider AACGGCACTC, for which the switch fluorescence ratio amounted to 1.67. To ATAATAATTC belongs 1.04. To TGTGGGTTAA belongs 1; to GATAAAACAC, 1.03; to AAATTTTTA, 1.01. In the case of CTAGGGATAT, the switch fluorescence ratio came out at 1.

As for TTTATTGAAA, the switch fluorescence ratio stood at 1.03. On to ACATGTATAA, for which the switch fluorescence ratio is 1.03. GTCTCAAATT: the switch fluorescence ratio stood at 1.02. To GGGTCTCTAT belongs 0.953. For TTCTAGAGTT, the switch fluorescence ratio came out at 1.02. To GACGTCATTA belongs 1.03.

Take CGAAGATTTC: the switch fluorescence ratio came to 1.

Consider CGAGAGAGGT, for which the switch fluorescence ratio came to 0.962. With CAAAACTACG, the switch fluorescence ratio was 1.02. To ATAGAGCAAG belongs 1.1. On to CTTACACCTG, for which the switch fluorescence ratio came out at 1.07. To TAGCGGTGCC belongs 0.986; to TTTCCTTGGA, 0.99. On to TCTAGATCTA, for which the switch fluorescence ratio is 0.966. To TCTCAACAT belongs 1.01; to CGGAAGGTTA, 0.971; to GTCGTTGGGG, 1.03. For TAAGGTTGAG the value was 0.987; for CGTCTTCAA, 0.988; for GCTATAGATG, 1.02.

Consider ACCCATAAGG, for which the switch fluorescence ratio turned out to be 1.01. For TTACGCGCTC the value was 4.36; for GGGTGGAGA, 1.08; for GTAGGAATCC, 1.1.

In the case of CTGGAAGAG, the switch fluorescence ratio came out at 1.06.

Turning to TCCACTAAAA, the switch fluorescence ratio stood at 1.03. TGTGATTTAG: the switch fluorescence ratio worked out at 0.98. To GGGTCGTGAT belongs 0.964; to AGTGTTGTTC, 1.03. On to CGTGTGCTTG, for which the switch fluorescence ratio came out at 0.986. To TCGTGGCTGA belongs 1.03; to CAGAGTAGTT, 1.03; to GACTGCACTA, 1.52. For CATTGTATAA the value was 0.998; for ACGCCTCCTG, 1.21. For TTGTAAAAA the value was 1.05.

CGGAATCTA: the switch fluorescence ratio was 1.01. For GCTGATGGGA the value was 0.955; for TCATTGACGC, 1.02; for CGTATATGAA, 1.01. For ACATATATTT the value was 1.03; for CAATTCATGC, 1.02. To CGGGGTATGA belongs 0.969; to CTCATCTTCC, 2.17; to TGTGTTGCAT, 1.01. Consider TCGAGACCGA, for which the switch fluorescence ratio was found to be 1.05. For GAAACCGAGC the value was 1.22; for CTGTGGTATA, 1; for TGCGGCATGT, 0.974. For CTGCAAGTTG the value was 1.1; for GCGAAAAAAT, 0.984; for ATTATGAGGG, 1.01. Consider ACAAAGGGGC, for which the switch fluorescence ratio was 0.994. With GTCCGAAGTA, the switch fluorescence ratio turned out to be 1.3.

Regarding CGGGTTGTTG, the switch fluorescence ratio worked out at 0.964. For CTGGGTTAAA the value was 1.02. To CCATATTAGG belongs 1.01.

For the sequence CAGGTTGGAA, the switch fluorescence ratio came out at 1.06.

Take TGTGCAAGCA: the switch fluorescence ratio is 0.955. To ATGGCTTCAA belongs 1.04; to ACACGTCAAG, 1.08. For GTGCATAGTA the value was 1.03; for ACTACTAA, 1.05. For ACTTTCAGGA the value was 0.993; for TGCAATATGA, 3.98; for CGTTCGATCT, 0.994. Consider TGCAGTGTGT, for which the switch fluorescence ratio amounted to 1.01. To GGCTGCCGTG belongs 1.04; to CCCCCTAGCG, 2.35; to ATGATGCAC, 1.07.

For TAGGAAATAT, the switch fluorescence ratio came out at 1.03. To GCACGTTGAC belongs 1.15; to CAATTTTTTC, 1.04; to TATTGATT, 0.972. For CCTTTCTGGT the value was 0.996; for CATAGCGTAA, 1.1.

Take CATGGACACG: the switch fluorescence ratio was 1.02. For ACTTATGGCC the value was 1.02; for AAGCTGGGTC, 0.976. For GTGACTGATC the value was 1.03; for GTCTGTTGGC, 1.01; for GGATCCGAGG, 1.05.

For GTCGGAGGTT, the switch fluorescence ratio was 0.996.
